# Assay results reported in article PMC4336329 (PLoS ONE, 2015).
# Among all 310,000 compounds or so, about 14,000 (4.5%) showed an effect of 50% or more. The effect is printed as a negative number. The list shows a part of the results.
# Biological target: human ether-à-go-go-related gene (hERG) potassium channel (human, UniProt Q12809)
# Test: primary screen, population patch clamp on CHO cells stably expressing hERG
# 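Note: peak tail current of the secondary pulse compared with the same well before compound.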
# human ether-à-go-go-related gene (hERG) potassium channel, sequence (Q12809 whole entry, looked up): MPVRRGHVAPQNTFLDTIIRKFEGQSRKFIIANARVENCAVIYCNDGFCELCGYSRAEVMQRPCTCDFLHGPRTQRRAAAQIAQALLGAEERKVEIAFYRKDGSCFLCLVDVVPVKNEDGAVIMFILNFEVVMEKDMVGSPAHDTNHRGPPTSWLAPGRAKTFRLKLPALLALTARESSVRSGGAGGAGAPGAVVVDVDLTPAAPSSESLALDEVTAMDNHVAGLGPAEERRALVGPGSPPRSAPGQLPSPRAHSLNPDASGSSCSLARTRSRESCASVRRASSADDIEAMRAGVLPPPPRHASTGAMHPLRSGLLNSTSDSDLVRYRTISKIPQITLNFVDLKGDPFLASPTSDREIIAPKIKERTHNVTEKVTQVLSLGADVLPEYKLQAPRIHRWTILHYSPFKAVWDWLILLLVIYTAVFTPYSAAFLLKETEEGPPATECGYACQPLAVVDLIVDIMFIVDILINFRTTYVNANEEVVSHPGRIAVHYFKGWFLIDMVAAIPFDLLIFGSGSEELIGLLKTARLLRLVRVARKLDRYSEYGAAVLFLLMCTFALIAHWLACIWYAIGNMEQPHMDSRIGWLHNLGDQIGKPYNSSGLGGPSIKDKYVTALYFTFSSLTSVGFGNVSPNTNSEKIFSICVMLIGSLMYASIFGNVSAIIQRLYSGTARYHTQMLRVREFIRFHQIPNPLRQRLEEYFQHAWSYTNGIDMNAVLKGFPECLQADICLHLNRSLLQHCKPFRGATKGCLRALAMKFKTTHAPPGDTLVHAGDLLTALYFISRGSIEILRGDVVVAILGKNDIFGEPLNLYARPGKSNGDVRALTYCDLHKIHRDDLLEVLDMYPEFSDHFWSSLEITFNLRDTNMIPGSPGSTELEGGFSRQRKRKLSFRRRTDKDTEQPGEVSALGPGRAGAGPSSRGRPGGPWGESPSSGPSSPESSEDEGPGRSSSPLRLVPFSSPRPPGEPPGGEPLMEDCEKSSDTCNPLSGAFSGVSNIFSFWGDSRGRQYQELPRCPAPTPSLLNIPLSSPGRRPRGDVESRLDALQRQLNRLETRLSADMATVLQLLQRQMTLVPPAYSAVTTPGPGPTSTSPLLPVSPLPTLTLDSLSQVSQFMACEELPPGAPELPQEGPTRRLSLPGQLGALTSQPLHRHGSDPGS
row,Compound,"hERG current change (%, negative = inhibition) at 10uM [%]"
1,CSc1ccccc1C(=O)NC1CCCCC1,-29.2
2,CN1CCN(c2ccc(C(=O)NC3CCCCC3)cc2[N+](=O)[O-])CC1,-9.83
3,CCOC(=O)c1c(C)nc(-c2ccccc2)nc1N,7.25
4,C=CCOc1ccc(C(=O)O)cc1Cl,-3.19
5,Cc1cc(NS(=O)(=O)c2ccccc2)c(C)c(Cl)c1O,-1.75
6,COc1ccccc1NC(=O)Cc1nnc(SCC(=O)NC2CCCCC2)n1C,18.9
7,CCOC(=O)C1=C(C)N(C)C(=O)NC1c1ccc(C)s1 (stereo not drawn),5.79
8,CCOC(=O)c1ccc(NC(=O)CSc2nc(C)cc(=O)[nH]2)cc1,14.4
9,CCOC(=O)C1(c2nc(N)cs2)COC(=O)C1 (stereo not drawn),16.3
10,Cc1ccc(-n2c(O)c(C=Nc3ccc(Br)cn3)c(=O)[nH]c2=O)cc1,11.5
11,O=C(c1ccccc1-c1ncc[nH]1)N1CCc2c([nH]c3ccccc23)C1c1ccccn1 (stereo not drawn),-25.1
12,CC(C)C(=O)Nc1ccc(S(=O)(=O)Nc2ccccn2)cc1,1.92
13,CCn1nnnc1SCC(=O)Nc1cccc(NC(C)=O)c1,-1.06
14,O=C(COc1ccccc1-c1ccccc1)NCc1ccco1,-28
15,COc1ccc2nc(SCC(=O)Nc3nccs3)[nH]c2c1,11.4
16,CC1CC(=O)N(CC(=O)Nc2cccc(F)c2)c2ccccc2S1(=O)=O (stereo not drawn),-4.3
17,COC(=O)c1ccccc1NC(=O)c1ccccc1SC,-7.31
18,CCN1/C(=C/c2cccc[n+]2C)Sc2ccc(OC)cc21.[I-],-67.3
19,Cc1ccc2nc(CSc3nnc(-c4ccncc4)n3C)cc(=O)n2c1,0.704
20,Cl.Cn1nnc2c(N3CCCCC3)nccc21,-8.39
21,CCOC(=O)c1cnc2c(C)c(Cl)ccc2c1N1CCOCC1.Cl,10.8
22,COc1ccc(C2NC(=S)NC3=C2CCc2ccccc23)cc1OC (stereo not drawn),13.3
23,CCOC(=O)c1[nH]c2c(c1-c1ccccc1)C(=O)CC(c1ccc(Cl)cc1)C2 (stereo not drawn),9.15

row,Compound,"hERG current change (%, negative = inhibition) at 10uM [%]"
1,O=C(Cn1c(=O)oc2cc(S(=O)(=O)N3CCCC3)ccc21)NCc1ccc(F)cc1,-1.73
2,CCOC(=O)N1CCC(NC(=O)c2cc(C)c3c(C)nn(-c4ccccc4)c3n2)CC1,0.638
3,Cl.O=C(NCC(c1cccs1)N1CCOCC1)c1ccccc1NS(=O)(=O)c1ccc(Cl)c([N+](=O)[O-])c1 (stereo not drawn),-6.82
4,CCc1nnc(NC(=O)CCN2C(=O)c3ccccc3S2(=O)=O)s1,17.3
5,CC1(C)CC2CC(C)(CN2S(=O)(=O)c2cccc(C(=O)OCC(N)=O)c2)C1 (stereo not drawn),-7.62
6,COCCNC(=O)c1cc2c(-c3ccccc3F)nn(C)c2s1,-6.2
7,CCC1C(=O)Nc2ccccc2N1C(=O)COc1ccccc1 (stereo not drawn),7.72
8,O=C(Cc1c(F)cccc1Cl)NCCCn1ccnc1,-24.6
9,Cc1ccsc1CN(C)C(=O)c1cc(S(=O)(=O)N2CCOCC2)ccc1N1CCCC1,-40.5
10,CC(C)(C)N(NC(=O)OCc1ccccc1)C(=O)c1ccccc1,3.5
11,COc1ccc(C(=O)C2CCN(C(=O)c3ccc(F)cc3)CC2)cc1,-28.5
12,COc1cccc(CC(NC(C)=O)C(=O)NC2CCN(C(=O)c3ccc(Cl)cc3)CC2)c1OC (stereo not drawn),-9.4
13,CCN1CCN(C2=C(Cl)C(=O)N(Cc3ccccc3)C2=O)CC1,-41.2
14,COc1ccc(Cl)cc1NS(=O)(=O)c1cccc(C(=O)NC2CCC(O)CC2)c1 (stereo not drawn),-26.3
15,O=C(C1=C[C@H](c2ccc3c(c2)OCO3)C[C@H](OCc2ccc(CO)cc2)O1)N1CCCCCCC1,-33.3
16,COc1ccc2nc(SCC(=O)NCC(F)(F)F)[nH]c2c1,7.08
17,NC(=O)c1ccsc1NC(=O)COC(=O)CSc1ccc(Cl)cc1,20.8
18,O=C(N/N=C/c1cccnc1)c1cc2ccccc2cc1O,5.26
19,CC1=C(C#N)C(c2ccc(O)cc2)C2=C(CC(C)(C)CC2=O)N1 (stereo not drawn),19.3
20,Cc1ccc(-c2noc(CSc3nnc(Cc4cccs4)n3-c3ccccc3)n2)cc1,-17.9
21,Cn1ncc(Cl)c1C(=O)N/N=C/c1ccccn1,4.18
22,CN(CC(=O)Nc1ccccc1Cl)C(=O)CSC(=S)N1CCCC1,-0.418
23,O=C(O)c1ccccc1SSc1ccccc1C(=O)O,25.5

row,Compound,"hERG current change (%, negative = inhibition) at 10uM [%]"
1,O=C(N/N=C/c1ccc(OC(=O)c2ccco2)cc1)c1ccncc1,9.91
2,CN(C(=O)c1cc(-c2ccccc2)on1)C1CCCCC1,10.5
3,O=C(Nc1cccc(Cl)c1)N1CCOCC1,20
4,CCc1ccccc1NS(=O)(=O)c1ccc(OC)c2ncccc12,8.84
5,CC(C)C(NS(=O)(=O)c1cccc2nsnc12)C(=O)N1CCCCC1 (stereo not drawn),-3.61
6,Cc1ccc(C(=O)OCC(=O)N2CC(C)OC(C)C2)cc1 (stereo not drawn),24.1
7,CCCCCCCCCCCCN1[C@@H](CC(=O)O)c2cc(C(F)(F)F)ccc2S1(=O)=O,-6.65
8,O=C1c2ccccc2C(=O)N1OCCOCCOCCON1C(=O)c2ccccc2C1=O,-29.2
9,Cc1ccc(C)c(NC(=O)CCN2C(=O)[C@@H]3Cc4ccccc4CN3C2=O)c1,-5.26
10,COc1ccc2oc3cc(C)[n+]([O-])c(-c4ccc(C)cc4)c3c2c1,-6.95
11,CCNC(=S)N/N=C/c1ccc(C(=O)O)cc1,10.3
12,CC(=O)Nc1ccc(S(=O)(=O)NCCC(=O)OCC(=O)N2CCN(C(=O)c3ccco3)CC2)cc1,7.42
13,O=C(CCc1ccccc1)c1nnc(-c2ccccc2)o1,-20.7
14,O=C(CNC(=O)c1ccc2c(c1)OCCO2)N/N=C/c1cccc(Br)c1,-18.8
15,COc1cccc(NC(=O)Cc2nnc(SCC(=O)NC(C)c3ccccc3)n2C)c1 (stereo not drawn),15.1
16,C=CCOC(=O)C1=C[C@H](C2CCCCC2)[C@@H](CCCO)[C@H](OCC)O1,-10
17,Cc1ccc(S(=O)(=O)CC(=O)c2cc(C)c(O)c(C)c2)cc1,3.72
18,Cn1c(N=NC(=O)c2ccccc2)c(O)c2ccccc21,8.6
19,Cl.Oc1ccc(CC2(N3CCCC3)CCCCC2)cc1,12.5
20,CC1CCc2nn(CC(=O)NCCN3CCCCC3C)cc2C1 (stereo not drawn),-14.6
21,CCCCN(CCCC)CCNC(=O)c1cn(CC)c2ccc(S(=O)(=O)N3CCCC3)cc2c1=O,-65.7
22,CC(C)CCNC(=O)NC(=O)CSc1ncccn1,21.7
23,Cn1cnnc1SCC(=O)Nc1ccc2c(c1)CCC2,4.78

row,Compound,"hERG current change (%, negative = inhibition) at 10uM [%]"
1,COc1ccc(C/C(N)=N/n2cnnc2)cc1Cl,17
2,O=C(NCCC1=CCCCC1)C1CCC(CNS(=O)(=O)c2ccccc2)CC1 (stereo not drawn),1.26
3,COc1cccc(NC(=O)NCC2CCN(Cc3ccc(F)cc3)CC2)c1,-47.4
4,COc1ccc(S(=O)(=O)NC2CC2)cc1Cl,13.9
5,CCOC(=O)CNC(=O)c1ccc(Br)s1,-9.48
6,COc1cc(Cl)c(C)cc1NC(=O)CN(C)Cc1cccc(OC)c1OC,-6.16
7,COc1ccc(OC)c(NC(=S)N(CCc2c(C)[nH]c3ccccc23)Cc2cccs2)c1,-4.4
8,CC1=C(C(=O)Nc2ccccc2C(=O)NCCCOC(C)C)SCCO1,14
9,Cc1noc(C)c1COc1ccc(C(=O)N2CCN(S(=O)(=O)c3ccc(Cl)cc3)CC2)cc1,-12.4
10,O=C(COC(=O)c1cccnc1Cl)Nc1ccc(N2CCCCC2)cc1,-2.97
11,Nc1ccc(C(=O)OCC(=O)N2CCN(C(=O)c3ccco3)CC2)cc1[N+](=O)[O-],-3.64
12,CCC1(c2ccccc2)NC(=O)N(CC(=O)Nc2ccc(S(N)(=O)=O)cc2)C1=O (stereo not drawn),10.4
13,Cc1ccc(S(=O)(=O)NCCC(=O)N2CCCCCC2)cc1,1.86
14,FC(F)(F)c1cc(-c2ccccc2)nc(-n2cc(Cl)cn2)n1,9.49
15,COc1cc(OC)c(OC)cc1CNCC1COc2ccccc2O1.Cl (stereo not drawn),-4.76
16,CCNc1ccc(C(=O)OC(C(=O)NC(N)=O)C(C)C)cc1[N+](=O)[O-] (stereo not drawn),11.4
17,O=C(Nc1ccc2c(c1)oc1ccc(S(=O)(=O)N3CCCC3)cc12)C1CC1,7.36
18,COC(=O)[C@@]1(Cc2ccc(OC)cc2)[C@H]2c3cc(C(=O)N(C)C)[nH]c3C[C@H]2CN1C(=O)c1ccccc1,-29.8
19,CCC(C)Oc1nc(C)cc(C)c1S(=O)(=O)c1ccccc1C (stereo not drawn),4.94
20,CCc1c(C(=O)Nc2nnc(C3CC3)s2)csc1C,11
21,CCc1nc(Nc2cccc(F)c2)c2oc3ccccc3c2n1.Cl,14.8
